Results on 153 variants are retold here after a collection of fitness landscapes (doi:10.1016/j.celrep.2020.107928).

The labels stand for the following.
B1: Caulobacter ParB omega fusion; a variant is named by its letters at X, in order, B8GW30 (parent)
chain: MESVVVGEPGMSEGRRGLGRGLSALLGEVDAAPAQAPGEQLGGSREAPIEILQRNPDQPRRTFREEDLEDLSNSIREKGVLQPILVRPSPDTAGEYQIVAGERAWRAAQRAGLKTVPIMVRELDDLAVLEIGIIENVQRADLNVLEEALSYKVLMEKFERTQENIAQTIGKSXSHVANXMRLLXLPDEVQSYLVSGELTAXHARAIAAAADPVALAKQIIEGGLSVRETEALARKAPNLSAGKSKGGRPPRVKDTDTQALESDLSSVLGLDVSIDHRGSTGTLTITYATLEQLDDLCNRLTRGI

In all, about 81,000 sequences were measured (“one-hybrid fitness for binding parS DNA”: median about -0.17, highest 2% from about 0.51 on). Some of the results follow.

This assay covers variants of B1. Kind of assay: one-hybrid fitness for binding parS DNA (scaled: cognate 1, non-cognate 0); higher = stronger binding. The conditions noted are these: with parS DNA site. The method in brief: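 Fitness here means the log change in variant-to-wild-type read ratio between plasmids sequenced before and after selection. That scale was set so cognate equals 1 and non-cognate equals 0. The selection was a bacterial one-hybrid screen of Caulobacter ParB libraries, four specificity codons randomised, in E. coli USO carrying a HIS3 reporter with the site 19 bp from the promoter, grown 48 hours at 37°C on M9-minus-histidine with 0.1 mM IPTG and 5 mM 3-AT.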
Turning to IMLG, the “one-hybrid fitness for binding parS DNA” value was at most 0.2.
Next, LWPH: at most 0.2; DKCH: at most 0.2; EASL: at most 0.2.
Consider LPGD, for which the “one-hybrid fitness for binding parS DNA” value is at most 0.2.
As for LHSK, the figure is at most 0.2.
On to PLVL, for which the “one-hybrid fitness for binding parS DNA” value was at most 0.2.
Regarding NAHR, the “one-hybrid fitness for binding parS DNA” value is at most 0.2.
As for ELEF, the figure is at most 0.2; as for LKKA, at most 0.2; as for IHPM, at most 0.2.
Take GIST: the “one-hybrid fitness for binding parS DNA” value is at most 0.2.
As for CIMS, the figure is at most 0.2.
Turning to VEMW, the “one-hybrid fitness for binding parS DNA” value worked out at 0.21.
As for AYTG, the “one-hybrid fitness for binding parS DNA” value was at most 0.2.
For GSAK, the “one-hybrid fitness for binding parS DNA” value is at most 0.2.
As for EAPQ, the figure is at most 0.2.
As for HTNP, the figure is at most 0.2; as for QIML, at most 0.2; as for SKYT, at most 0.2.
As for MRLS, the figure is at most 0.2.
For the variant PQAL, the “one-hybrid fitness for binding parS DNA” value was at most 0.2.
As for TDWR, the figure is at most 0.2.
In the case of LTWW, the “one-hybrid fitness for binding parS DNA” value is at most 0.2.
Next, VDSV: at most 0.2; RMDK: at most 0.2.
As for WRVG, the “one-hybrid fitness for binding parS DNA” value is at most 0.2.
As for KARC, the figure is at most 0.2; as for ETES, at most 0.2.
As to QAVA, the “one-hybrid fitness for binding parS DNA” value was at most 0.2.
Next, QMTN: at most 0.2; VVKL: at most 0.2.
Regarding TFEV, the “one-hybrid fitness for binding parS DNA” value is at most 0.2.
For TLQI, the “one-hybrid fitness for binding parS DNA” value was at most 0.2.
As for KKTT, the “one-hybrid fitness for binding parS DNA” value is at most 0.2.
Turning to CFEL, the “one-hybrid fitness for binding parS DNA” value is at most 0.2.
For the variant VDSI, the “one-hybrid fitness for binding parS DNA” value was at most 0.2.
TKGL: the “one-hybrid fitness for binding parS DNA” value was at most 0.2.
Next, RNQD: at most 0.2; KNTA: at most 0.2.
With RRYR, the “one-hybrid fitness for binding parS DNA” value is at most 0.2.
With AYWT, the “one-hybrid fitness for binding parS DNA” value was at most 0.2.
In the case of RMLV, the “one-hybrid fitness for binding parS DNA” value is at most 0.2.
As for SMIG, the figure is at most 0.2; as for IHNT, at most 0.2.
As for SPHT, the “one-hybrid fitness for binding parS DNA” value was at most 0.2.
In the case of RVWS, the “one-hybrid fitness for binding parS DNA” value came to 1.05.
Regarding KHYE, the “one-hybrid fitness for binding parS DNA” value is at most 0.2.
Next, SQWF: at most 0.2; AVYG: at most 0.2; ACSY: at most 0.2.
Next, IPCG: at most 0.2.
Next, PPYW: at most 0.2; AYLI: at most 0.2.
On to RKNV, for which the “one-hybrid fitness for binding parS DNA” value is at most 0.2.
Next, DTRW: at most 0.2; KAKA: at most 0.2; YMRT: at most 0.2.
Consider KHRA, for which the “one-hybrid fitness for binding parS DNA” value was at most 0.2.
Next, QMEL: at most 0.2.
As for SRAA, the figure is at most 0.2; as for DRPY, at most 0.2; as for DPHY, at most 0.2.
Take VQRC: the “one-hybrid fitness for binding parS DNA” value is at most 0.2.
As for ACYN, the figure is at most 0.2; as for DSLF, at most 0.2.
Next, RSCS: 0.995.
Regarding GPDV, the “one-hybrid fitness for binding parS DNA” value is at most 0.2.
Turning to PTRP, the “one-hybrid fitness for binding parS DNA” value is at most 0.2.
In the case of DNYS, the “one-hybrid fitness for binding parS DNA” value is at most 0.2.
As for MAQE, the figure is at most 0.2; as for EALI, at most 0.2; as for ECVT, at most 0.2.
As for RELF, the figure is at most 0.2; as for DRLN, at most 0.2; as for LVGI, at most 0.2.
With PSCF, the “one-hybrid fitness for binding parS DNA” value was at most 0.2.
Next, QNQG: at most 0.2.
Next, KWKG: 0.238.
As for KQHL, the figure is at most 0.2.
As to RNFF, the “one-hybrid fitness for binding parS DNA” value was at most 0.2.
As for MLHC, the figure is at most 0.2; as for YPKT, at most 0.2; as for DVTK, at most 0.2.
As for PCRD, the figure is at most 0.2.
Next, HAAH: at most 0.2; CYKT: at most 0.2.
NFTF: the “one-hybrid fitness for binding parS DNA” value was at most 0.2.
For the variant IEPH, the “one-hybrid fitness for binding parS DNA” value is at most 0.2.
Regarding CAEW, the “one-hybrid fitness for binding parS DNA” value is at most 0.2.
In the case of PVCF, the “one-hybrid fitness for binding parS DNA” value is at most 0.2.
Next, GHLE: at most 0.2; PNAW: at most 0.2.
Turning to MCPT, the “one-hybrid fitness for binding parS DNA” value is at most 0.2.
As for NDPL, the figure is at most 0.2.
On to YDKS, for which the “one-hybrid fitness for binding parS DNA” value is at most 0.2.
Take GTCG: the “one-hybrid fitness for binding parS DNA” value was at most 0.2.
As for QFCC, the figure is at most 0.2; as for DLPC, at most 0.2; as for GHRE, at most 0.2.
As for GMQT, the figure is at most 0.2; as for RKRY, 0.422.
As for IHDP, the figure is at most 0.2; as for LCGW, at most 0.2; as for ARLV, at most 0.2.
For the variant ELVC, the “one-hybrid fitness for binding parS DNA” value is at most 0.2.
Next, STRI: at most 0.2; AMLT: at most 0.2.
As for SAQV, the figure is at most 0.2.
Take RFWA: the “one-hybrid fitness for binding parS DNA” value was found to be 0.481.
Next, ARDL: at most 0.2; MAPG: at most 0.2; LQEN: at most 0.2.
In the case of MTSK, the “one-hybrid fitness for binding parS DNA” value is at most 0.2.
As for NNCK, the figure is at most 0.2.
As for PVEG, the figure is at most 0.2; as for SVTI, at most 0.2.
On to LLRR, for which the “one-hybrid fitness for binding parS DNA” value is at most 0.2.
As for TGSF, the figure is at most 0.2; as for HSAD, at most 0.2; as for ILLW, at most 0.2.
Next, QNPA: at most 0.2; TYTR: at most 0.2.
As for SHIA, the figure is at most 0.2; as for ERDT, at most 0.2; as for LHHF, at most 0.2.
Consider RVHE, for which the “one-hybrid fitness for binding parS DNA” value was at most 0.2.
As for TYTD, the figure is at most 0.2.
Next, FNWS: at most 0.2; VRCV: at most 0.2.
As for RCRD, the figure is at most 0.2; as for KETH, at most 0.2; as for DQTR, at most 0.2.
As for GVTI, the “one-hybrid fitness for binding parS DNA” value was at most 0.2.
With VVPM, the “one-hybrid fitness for binding parS DNA” value was at most 0.2.
Next, CKNS: at most 0.2; MLEG: at most 0.2; RCGA: 0.653.
As for KDLT, the figure is at most 0.2; as for VCNI, at most 0.2; as for RDTH, at most 0.2.
As for PERT, the figure is at most 0.2.
For the variant LHPK, the “one-hybrid fitness for binding parS DNA” value was at most 0.2.
Take EARF: the “one-hybrid fitness for binding parS DNA” value is at most 0.2.
In the case of LTQS, the “one-hybrid fitness for binding parS DNA” value is at most 0.2.
As for KMIS, the figure is at most 0.2; as for RYTY, 0.429.
Regarding GGFR, the “one-hybrid fitness for binding parS DNA” value was at most 0.2.
Next, DAAE: 0.204.
As for PCDH, the “one-hybrid fitness for binding parS DNA” value is at most 0.2.
Consider MFWG, for which the “one-hybrid fitness for binding parS DNA” value is at most 0.2.
Take RDPW: the “one-hybrid fitness for binding parS DNA” value was at most 0.2.
Turning to EKNR, the “one-hybrid fitness for binding parS DNA” value is at most 0.2.
